# Test results from the supplement of paper PMC10441789.
# The other results are listed elsewhere or left out. Antibody binding of pooled human sera (four to six donors per pool; dilution not stated) to peptides of the Trypanosoma cruzi antigen TSSA on microarrays. Quantile-normalised fluorescence in arbitrary units, mean of duplicate arrays; higher = more binding. No active / inactive call. The uninfected pools are read here as the healthy donors of the same country. The strongest signals lie near the top of the scale (about 60,000).
# System: pooled sera of uninfected people, Colombia
# Experiment: antibody binding signal (normalised fluorescence) (arbitrary fluorescence units); higher = stronger serum antibody binding to peptide
# Description: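 Microarray of 15-residue peptides over residues 30-55 of Trypanosoma cruzi TSSAII, each with 1 to 10 substitutions at naturally variable positions, probed with one serum pool per country.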
row,Sequence,antibody binding signal
1,GTEKKAATGETPSPP,679
2,PPSGKENKTATGETP,913
3,NKTAAGGTPSQSGAS,439
4,PSGTDNKAATGETPS,274
5,GTDNKPATGGAPSPS,219
6,SGKDNKAAAGGAPSQ,561
7,KKAATGETPSPPGAS,288
8,SGTEKKPATGGAPSQ,208
9,DKKAATGGTPSQPGA,1040
10,GTEKKPAAGGAPSQS,98
11,GKDNKPATGGAPSPP,146
12,PPSGKDNKTAAGGAP,279
13,KEKKTAAGGAPSPPG,187
14,ENKPAAGEAPSQSGA,82.9
15,KDNKPAAGGAPSQPG,148
16,GTDKKPAAGGTPSQP,185
17,GTENKTAAGETPSQS,263
18,TDKKPATGGAPSQSG,150
19,TDKKTAAGGTPSQSG,173
20,GKENKTATGGAPSPP,118

row,Sequence,antibody binding signal
1,PPSGTDNKTATGGAP,557
2,TENKAATGEAPSPPG,116
3,TISTPPSGKDNKPAT,188
4,KDNKPATGGAPSQSG,236
5,SGTENKTATGETPSP,248
6,PSGTEKKTATGGTPS,692
7,KDNKTAAGGAPSQSG,180
8,PSGKEKKAAAGETPS,384
9,KKPATGEAPSPPGAS,234
10,SGTENKPATGEAPSP,185
11,GKDKKAATGEAPSQP,159
12,TPPSGTDKKPAAGGT,420
13,GKENKTATGEAPSQS,179
14,GKEKKTAAGEAPSPS,290
15,KDNKAAAGGAPSPPG,204
16,TDKKAAAGGTPSQPG,168
17,KEKKPAAGGTPSQSG,114
18,ISTPPSGTEKKPAAG,189
19,STPPSGKENKAAAGE,1640
20,TSSTPPSGTEKKAAA,218
